# Assay results: PMC4336329 (PLoS ONE, 2015)
# About 2,200 (0.71%) of roughly 310,000 compounds showed an effect of 50% or more. Effects have a minus sign here. The list shows a part of the results.
# Molecular target: human ether-à-go-go-related gene (hERG) potassium channel (human, UniProt Q12809)
# Assay: primary screen, population patch clamp on CHO cells stably expressing hERG
# Sequence of human ether-à-go-go-related gene (hERG) potassium channel (Q12809 whole entry, looked up): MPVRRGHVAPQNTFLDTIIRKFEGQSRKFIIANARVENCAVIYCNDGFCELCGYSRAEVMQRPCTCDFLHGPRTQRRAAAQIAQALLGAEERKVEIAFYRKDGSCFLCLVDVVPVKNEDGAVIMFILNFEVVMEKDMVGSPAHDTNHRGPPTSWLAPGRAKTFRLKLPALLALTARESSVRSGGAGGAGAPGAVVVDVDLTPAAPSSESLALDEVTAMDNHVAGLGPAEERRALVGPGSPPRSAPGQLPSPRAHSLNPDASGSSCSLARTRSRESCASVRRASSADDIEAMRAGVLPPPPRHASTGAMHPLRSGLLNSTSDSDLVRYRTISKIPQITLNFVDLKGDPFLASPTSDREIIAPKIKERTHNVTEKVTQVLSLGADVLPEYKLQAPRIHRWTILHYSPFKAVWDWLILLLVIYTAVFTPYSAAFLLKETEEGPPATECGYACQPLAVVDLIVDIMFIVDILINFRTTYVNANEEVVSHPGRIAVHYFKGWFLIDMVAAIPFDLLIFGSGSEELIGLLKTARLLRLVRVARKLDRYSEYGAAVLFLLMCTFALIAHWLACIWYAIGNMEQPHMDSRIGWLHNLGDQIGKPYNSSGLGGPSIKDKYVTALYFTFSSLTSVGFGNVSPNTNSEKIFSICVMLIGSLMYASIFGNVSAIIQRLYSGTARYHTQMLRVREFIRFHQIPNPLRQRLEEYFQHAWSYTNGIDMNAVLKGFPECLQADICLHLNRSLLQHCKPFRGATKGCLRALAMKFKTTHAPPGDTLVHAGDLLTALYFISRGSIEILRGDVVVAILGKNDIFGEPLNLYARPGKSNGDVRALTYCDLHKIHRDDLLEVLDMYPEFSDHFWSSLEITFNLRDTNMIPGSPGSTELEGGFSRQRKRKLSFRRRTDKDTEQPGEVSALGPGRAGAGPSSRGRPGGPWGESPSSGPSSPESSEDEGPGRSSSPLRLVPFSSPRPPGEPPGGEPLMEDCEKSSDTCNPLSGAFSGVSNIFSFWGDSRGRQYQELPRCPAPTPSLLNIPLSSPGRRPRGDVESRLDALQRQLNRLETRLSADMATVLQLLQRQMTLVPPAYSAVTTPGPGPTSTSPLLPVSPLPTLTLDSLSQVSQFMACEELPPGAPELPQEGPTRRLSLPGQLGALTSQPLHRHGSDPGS
row,SMILES,"hERG current change (%, negative = inhibition) at 1uM"
1,CCc1ccc(CN(C)C(=O)CC2C(=O)NCCN2Cc2ccoc2)cc1 (centres unmarked),15.6%
2,COc1ccc(CC(=O)Nc2c(C(=O)N3CCN(c4ncccn4)CC3)oc3ccccc23)cc1OC,-12.8%
3,Cc1ccc(C(=O)COC(=O)CNC(=O)CN2C(=O)c3ccccc3C2=O)cc1,21.3%
4,O=C(CCn1nnc(-c2cccs2)n1)NCc1ccccc1Cl,2.19%
5,Cl.OC(COC(c1ccc(Cl)cc1)c1ccc(Cl)cc1)CN1CCN(c2ccccn2)CC1 (centres unmarked),-79.7%
6,Cc1ccccc1CC(=O)Nc1ccc(C(=O)N2CCCC2)cc1,17.7%
7,O=C(CN1C(=O)NC2(CCSC2)C1=O)NCc1ccccc1 (centres unmarked),15.9%
8,CN(C)S(=O)(=O)c1ccc(Cl)c(NC(=O)COC(=O)/C=C/c2ccco2)c1,10.7%
9,CCCC12CN3CC(C)(CN(C1)C3c1ccc3c(c1)OCO3)C2=O (centres unmarked),0.932%
10,Cc1ccc(OS(=O)Nc2cccc3nccnc23)cc1 (centres unmarked),4.7%
11,CNC(=S)N(Cc1ccc(OC)cc1)Cc1cc2cccc(C)c2[nH]c1=O,-0.131%
12,COc1cc(C(=O)Nc2ccc3oc(-c4cccnc4)nc3c2)cc(OC)c1OC,2.93%
13,Cc1ccc(CNC(=O)COC(=O)CCOc2ccc(C)cc2)cc1,3.65%
14,CC(C)C[C@H](NC(=O)c1nc[nH]c1C(=O)NC1CC[NH2+]CC1)C(=O)OC(C)(C)C.[Cl-],19.8%
15,Nc1cccnc1Sc1ccc(Cl)cc1,4.34%
16,Cc1c(C)c2ccc(OCC(=O)N3CC[C@@]4(O)CCCC[C@H]4C3)c(C)c2oc1=O,15.9%
17,O=C(Cn1c(=S)[nH]c2ccccc2c1=O)N1CCN(c2ccccc2)CC1,11.6%
18,O=C(Nc1cccc(F)c1)/C(=C/c1ccco1)NC(=O)c1ccco1,10.3%
19,Cc1cc(C)cc(NC(=O)C2CCCN(S(=O)(=O)c3ccc4[nH]c(=O)ccc4c3)C2)c1 (centres unmarked),-3.82%
20,Cc1ccc(C(C)C)cc1NC(=O)Nc1ccc([N+](=O)[O-])cc1,5.3%
21,CSc1nsc(SCC(=O)Nc2cccc(NC(C)=O)c2)n1,9.84%
22,COc1ccc(C2=Nn3c(nnc3-c3ccccn3)SC2)cc1OC,-5.62%
23,CN(C(=O)Nc1cnc2ccccc2c1)c1ccccc1,7.98%

row,SMILES,"hERG current change (%, negative = inhibition) at 1uM"
1,CCn1c2ccccc2c2nnc(SCCN3CCOCC3)nc21,12.9%
2,O=C(COc1ccc(Cl)cc1Cl)NC(=S)Nc1ccccc1C(=O)O,16.7%
3,Cc1ccccc1C(=O)Nc1ccc(N2CCN(C(=O)c3ccco3)CC2)cc1,13.3%
4,Cc1ccc(S(=O)(=O)N(CC(=O)Nc2ccccc2C(=O)O)c2cccc(Cl)c2C)cc1,10.3%
5,Cc1nc2ccccc2n1CC(=O)NCCN1CCCC1,-3.02%
6,O=C(O)c1cccc(NC(=S)N/N=C/c2cccnc2)c1,10.6%
7,COc1ccc(-n2c(CNC(=O)c3cccs3)n[nH]c2=S)cc1,14.8%
8,CC1CCCCC1NC(=O)COC(=O)c1c2c(nc3ccccc13)/C(=C/c1ccco1)CC2 (centres unmarked),-0.0827%
9,Cc1ccc(CN2CC(C(=O)N3CCN(c4ccccc4O)CC3)CC2=O)cc1 (centres unmarked),-1.84%
10,O=C(CN1CCN(C(=O)c2cncn2-c2ccccc2)CC1)Nc1ccccc1Cl,-83.4%
11,CC(=O)Nc1cccc(OC(=O)c2ccoc2C)c1,5.22%
12,CCCn1c(SCC(=O)NCc2cccs2)nc2c1c(=O)n(C)c(=O)n2C,11.7%
13,OCCCn1c(-c2ccccc2)n[nH]c1=S,4.21%
14,COc1cc(C(=O)NC(=S)Nc2nccs2)cc(OC)c1OC,0.0315%
15,O=C(C1=C[C@H](C2CC2)C[C@H](OCc2ccc(CO)cc2)O1)N1CCOCC1,14.7%
16,O=c1c2[nH]c3ccccc3c2ncn1Cc1ccncc1,-0.66%
17,COc1ccc(N2C(=O)NC3CC2(C)Oc2ccc(Br)cc23)cc1OC (centres unmarked),4.62%
18,Cn1c(-c2ccc(Cl)nc2)nc2cc(Cl)ccc21,7.98%
19,O=C1c2ccccc2C(=O)N1Cc1nc(-c2ccccc2)no1,11.1%
20,O=C(OCC(=O)N(Cc1ccccc1)C1CCS(=O)(=O)C1)c1cc2c(s1)CCCC2 (centres unmarked),13.2%
21,S=C1NCN(Cc2cccnc2)CN1c1cccc(Cl)c1,11.2%
22,Cc1occc1-c1nnc(SCC(=O)Nc2nccs2)n1CCc1ccccc1,-18.1%
23,CCCOC(=O)c1c(-c2ccc(C)cc2C)csc1NC(=O)C1C2CCC(O2)C1C(=O)O (centres unmarked),6.33%

row,SMILES,"hERG current change (%, negative = inhibition) at 1uM"
1,CSc1cccc(NC(=O)CCNC(=O)c2ccco2)c1,11.8%
2,COc1ccc(-c2nc(CN3CCN(C(=O)c4ccco4)CC3)c(C)o2)c(OC)c1C,-4.61%
3,Cc1ccc(C(=O)c2cc3c(cc2N)OCCO3)cc1,-0.18%
4,Cc1c(NC(=O)COC(=O)COc2ccc(Nc3ccccc3)cc2)c(=O)n(-c2ccccc2)n1C,9.13%
5,CC(C)N1CC=C(c2c[nH]c3ccccc23)CC1,8.75%
6,Cc1ccc(OC/C(O)=C(\C#N)c2nc3ccccc3s2)cc1,9.87%
7,CC1CCN(CC(=O)N2c3ccccc3CC2C)CC1.Cl (centres unmarked),6.09%
8,O=C(COC(=O)C1CCCC1)NCc1ccc(Cl)cc1,11.1%
9,COC(=O)CNC(=O)CCC(=O)N1CCN(C(c2ccccc2)c2ccccc2)CC1,-6.81%
10,CCOC(=O)C1CCCN(C(=O)CCNS(=O)(=O)c2ccc3c(c2)CCC(=O)N3)C1 (centres unmarked),7.22%
11,CCC(c1ccccc1)c1nc(-c2cccnc2)no1 (centres unmarked),-5.3%
12,Cc1ccc(S(=O)(=O)Oc2ccccc2/C=N/N=C(N)N)cc1,2.11%
13,CCc1cccc(CC)c1NC(=O)Cn1c(-c2ccccc2Cl)nc2ccccc21,9.42%
14,CCCc1nnc(NC(=O)CCC(=O)N2CCN(CCn3c(C)ccc3C)CC2)s1,10.3%
15,N/C(=N\OC(=O)CN1C(=O)c2ccccc2C1=O)c1ccc(Br)cc1,13.4%
16,Cc1cc(C(=O)Nc2cccc(S(=O)(=O)N3CCCC3)c2)c2ccccc2n1,15.1%
17,Brc1cccc(CN2CCCCCCC2)c1,1.65%
18,Cc1ccc(S(=O)(=O)Nc2nc3c(s2)C(=O)CC(C)(C)C3)cc1,14.8%
19,CCS(=O)(=O)N1CCC(C(=O)Nc2cc(Cl)ccc2O)CC1,12.3%
20,CCCOc1ccc(C(=O)Nc2ccc(S(=O)(=O)Nc3onc(C)c3C)cc2)cc1,13%
21,Cn1c(NC(=O)c2ccco2)c(-c2ccc(Cl)cc2)c(=O)c2ccccc21,19.6%
22,CCc1cc(=O)[nH]c(SCc2cccc3ccccc23)n1,9.36%
23,Cc1c(NC(=O)C(=O)N/N=C/c2cccs2)c(=O)n(-c2ccccc2)n1C,13.2%

row,SMILES,"hERG current change (%, negative = inhibition) at 1uM"
1,CCCc1nc(SCC(=O)Nc2ccccc2OC)c2c(=O)n(C)c(=O)n(C)c2n1,4.49%
2,O=C(Nc1cccc(NC(=S)NC(=O)c2cccs2)c1)c1ccccc1,10.8%
3,CCC(=O)Nc1c2c(nn1-c1cccc(Cl)c1)CS(=O)(=O)C2,4.32%
4,CCN(C(=O)c1ccccc1F)c1nc(-c2ccc(OC)cc2)cs1,9.6%
5,Nc1ncn([C@@H]2O[C@H](CO)[C@@H](O)[C@H]2O)c(=O)n1,6.99%
6,O=C(CCCNS(=O)(=O)c1cccc2nsnc12)NCCc1ccccc1,10.9%
7,Cc1nn(Cc2ccccc2Cl)c(Cl)c1C(=O)O,9.69%
8,CN(C)CCNc1oc(-c2cccc(Cl)c2)nc1C#N,-11.6%
9,Cc1cccc(NC(=O)CSc2nnc(NC(=O)CN3CCCCC3)s2)c1,10.6%
10,O=C1CC(Sc2nnnn2C2CCCCC2)C(=O)N1c1ccccc1 (centres unmarked),9.94%
11,CC1(C)C=C(c2ccc(C=O)s2)CC(C)(C)N1,8.81%
12,CC(C)OC(=O)CN1C(=O)C(C)(C)Oc2ccc(C(=O)NC(C)(C)C)cc21,3.33%
13,O/N=C1\CCCC\C1=C/c1ccccc1,-0.676%
14,CN1C[C@@H]2C(c3ccc(C(F)(F)F)cc3)C3(c4cccnc4)CC2(C3)[C@H]1c1ccccc1 (some centres unmarked),4.84%
15,Cc1ccc(C)c(OCc2ccc(C(=O)NN)o2)c1,2.86%
16,O=C(CCNS(=O)(=O)c1ccccc1)N1CCC(Cc2ccccc2)CC1,12%
17,Cc1cccc(C)c1N1CCN(S(=O)(=O)N2CCCCC2)CC1,15.9%
18,CCCc1nnc(NC(=O)CN2C(=O)c3ccccc3S2(=O)=O)s1,9.4%
19,COc1cc(/C=N/NC(=O)CN2CCCCC2)ccc1OCc1ccc(Br)cc1,-1.9%
20,CC(C)(C)NC(=O)C(c1ccc(O)cc1)N(Cc1ccccc1)C(=O)CCC(=O)Nc1nccs1 (centres unmarked),10.6%
